Results taken from PubChem BioAssay AID1645882 (National Center for Advancing Translational Sciences (NCATS), 2021).
The whole screen tested about 16,000 compounds, of which about 120 (0.75%) were called active. About 4% were inconclusive and are not listed. Calls follow the shape of the dose curve; as a rule, active = well fitted inhibition curve with a large enough effect; inconclusive = small, poorly fitted or top-dose-only effect; inactive = no such curve, though single readings can be large or run the other way. The list shows a part of the results. Where a SMILES comes first, the peptide text is derived from it.

Target: Rap guanine nucleotide exchange factor 3 (Homo sapiens) (UniProt O95398)
Sequence of UniProt O95398 (O95398 whole entry, looked up): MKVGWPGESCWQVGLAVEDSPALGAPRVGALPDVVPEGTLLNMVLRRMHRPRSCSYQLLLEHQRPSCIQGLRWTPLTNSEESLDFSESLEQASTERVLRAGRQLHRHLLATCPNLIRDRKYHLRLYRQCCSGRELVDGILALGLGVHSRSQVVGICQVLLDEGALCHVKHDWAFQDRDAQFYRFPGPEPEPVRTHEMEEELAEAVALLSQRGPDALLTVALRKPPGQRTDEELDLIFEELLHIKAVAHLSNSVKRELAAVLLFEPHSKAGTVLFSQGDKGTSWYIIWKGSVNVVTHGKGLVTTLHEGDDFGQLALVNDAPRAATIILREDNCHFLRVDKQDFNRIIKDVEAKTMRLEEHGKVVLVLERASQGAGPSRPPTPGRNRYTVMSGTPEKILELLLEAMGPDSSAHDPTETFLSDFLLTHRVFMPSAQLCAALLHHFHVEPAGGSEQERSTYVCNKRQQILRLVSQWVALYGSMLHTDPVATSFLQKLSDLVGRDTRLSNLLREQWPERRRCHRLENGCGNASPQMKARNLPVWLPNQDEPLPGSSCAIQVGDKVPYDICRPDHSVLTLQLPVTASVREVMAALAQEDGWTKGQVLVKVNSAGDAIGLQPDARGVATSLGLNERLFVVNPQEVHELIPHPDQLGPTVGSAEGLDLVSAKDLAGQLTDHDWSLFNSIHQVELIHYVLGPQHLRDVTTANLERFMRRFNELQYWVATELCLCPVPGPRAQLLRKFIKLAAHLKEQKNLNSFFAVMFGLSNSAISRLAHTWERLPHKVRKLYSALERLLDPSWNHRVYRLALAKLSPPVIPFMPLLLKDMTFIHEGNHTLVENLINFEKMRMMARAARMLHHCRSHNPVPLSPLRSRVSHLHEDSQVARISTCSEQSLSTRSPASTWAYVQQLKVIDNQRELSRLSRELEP
Experiment: Validation qHTS for antagonist of cAMP-regulated guanine nucleotide exchange factor 3 (EPAC1);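 also: plate controls were DMSO for no effect and ATA control for full effect; nearly all actives have a fitted effect of over 75% in size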
Conditions: EPAC1 Rap1B-BODIPY-GDP exchange, fluorescence; series mostly up to 150 µM; activity change, negative = inhibition: at the top concentration
Method in brief: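 EPAC1 (100 nM) mixed with 250 nM RAP1B-BODIPY-GDP and 50 uM GDP; compounds in concentration series, 5 min at room temperature. Fluorescence (ex 480/em 540 nm) read every 5 min for 30 min; normalized to ATA control and DMSO.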

Activity change, negative = inhibition, inactive:
CC(C)CN1CC[C@@]2(CCCN(C(=O)c3ccco3)C2)C1 16.4%
CC1=CCc2c(cc3oc(C)cc(=O)c3c2O)OC1 -13.5%
CC1(C)O[C@@H]2C[C@H]3[C@@H]4C[C@H](F)C5=CC(=O)CC[C@]5(C)[C@H]4[C@@H](O)C[C@]3(C)[C@]2(C(=O)CO)O1 -7.45% [at 75.8 µM]
CC(=O)c1ccc(-c2cc(F)cc3c2OC(CNC(=O)c2ccc[n+]([O-])c2)C3)s1 (centres undefined) 6.16%
O=C(c1noc2c1CCCC2)N1CCOc2ccc(CN3CCN(c4ccccn4)CC3)cc2C1 15.3%
CCC1CN(CCNC(=O)c2ccnc(Cl)c2)Cc2cc(OC)ccc2O1 (centres undefined) -1.87%
C[C@@H]1CN(Cc2ccc3c(c2)CN(C(=O)CN2CCOc4ccccc4C2)CCO3)C[C@H](C)O1 7.62%
O[N+]1=CC=CCC1=S.On1ccccc1=S.[Zn] -7.78%
CC1(C)CC2C1CCC1(C)OC1CCC2(C)O (centres undefined) 4.64%
Cc1ccc2cc(CNC(C)CO)c(N3CCC(O)CC3)nc2c1 (centres undefined) 17.1%
CC(=O)O[C@]1(C)CC[C@]23CC1C(C)(C)C2CC[C@@H]3C (some centres undefined) 24.4%
CN(C)c1ccc(/C=C/c2ccnc3ccccc23)cc1[N+](=O)[O-] -3.13%
CN(C)c1ncc2nc(-c3cn(C)c4ccccc34)c(=O)n(C[C@H]3CCCO3)c2n1 17.1%
Cn1cccc1C(=O)N1CCC[C@@]2(CCN(c3ncccn3)C2)C1 15.2%
CN1CC[C@@]2(CCCN(C(=O)c3cccn3C)C2)C1 18.4%
OCc1cc([C@@H](O)CNCCCCCCOCCCCc2ccccc2)ccc1O 3.19%
COC(=O)N1CCC2(CCCN(c3cccc(-c4ccccc4)c3)C2)CC1 -7.76%
CC(C)(Oc1ccc(C2CCCc3ccccc32)cc1)C(=O)O (centres undefined) 3.43%
COc1cccc(-c2cncnc2NCc2cccnc2)c1 9.93%
COc1cccc(-c2ccc(O)c(CNC(c3ccccc3)c3ccc(Cl)cc3)c2)n1 (centres undefined) 1.86%
COc1cc2nc(N(C)C)c(CNCc3nonc3C)cc2c(OC)c1OC 4.14%
FC(F)(F)c1cc(CN2CC3(CCNCC3)C2)cc(C(F)(F)F)c1 -0.358%
O=c1c(-c2cccc(F)c2)nc2cncnc2n1Cc1ccc(F)cc1 -1.33%
NNC(=O)c1ccncc1
CN(C(=O)CCCOc1ccc2[nH]c(=O)ccc2c1)C1CCCCC1
Nc1ncnc2c1ncn2[C@@H]1O[C@H](COP(=O)(O)OP(=O)(O)OC[C@H]2OC(O)[C@H](O)[C@@H]2O)[C@@H](O)[C@H]1O (some centres undefined) 21.2%
N#Cc1ccc(CN2CCC3(CC2)CCN(C(=O)c2cccc(F)c2)CC3)cc1 15.2%
O=C(c1cccc(F)c1)N1CCC2(CCCN(c3ccc(-c4ccccc4)cc3)C2)CC1 8.17%
Cc1nc(CC(=O)N2CCC(n3c(C4CCC4)nc4cccnc43)CC2)cs1 21.8%
O=C(O)c1ccc2nc(-c3ccccc3)c(-c3ccccc3)nc2c1 26.4%
COc1cccc(CNC(=O)c2c(OC)cc(=O)n3c2CCN(C(=O)c2ccoc2C)CC3)c1 -0.197%
c1ccc(-c2cccc(N3CC4(CCNCC4)C3)c2)cc1 8.19%
COc1ccc(-n2c(=O)c(-c3cn(C)c4ccccc34)nc3cnc(OC)nc32)cc1 6.05%
CN(C)c1ccc(-c2nc(NC3CCNCC3)c3ccccc3n2)cc1 11.8%
N#CCCn1c(=O)c(-c2ccc(Cl)cc2)nc2cnc(OCc3ccccc3)nc21 19.3%
C=C1c2c(Cl)ccc(O)c2C(O)=C2C(=O)[C@]3(O)C(O)=C(C(N)=O)C(=O)[C@@H](N(C)C)[C@@H]3[C@@H](O)[C@H]12 8.85% [at 75.8 µM]
Clc1ccc2nsnc2c1NC1=NCCN1
CC(C)C1=CC2=CC[C@@H]3[C@](C)(CO)CCC[C@]3(C)C2CC1 (some centres undefined) -22.9%
O=[N+]([O-])c1c(Cl)cccc1-c1c[nH]cc1Cl -2.69%
N#Cc1ccccc1-c1ccc2ncnc(NCc3ccccc3)c2c1 2.11%
Cc1cc2cc3c(C)cc(=O)oc3c(C)c2o1
CC(=O)Nc1c(I)cc(I)c(C(=O)O)c1I 18.6%
CN1C(C(=O)Nc2ccccn2)C(=O)c2sc(Cl)cc2S1(=O)=O (centres undefined) 3.21%
CO/N=C(/C(=O)N[C@@H]1C(=O)N2C(C(=O)O)=C(COC(N)=O)CS[C@H]12)c1ccco1
CC(=O)Nc1nnc(S(N)(=O)=O)s1
COc1cccc(C(=O)NC(C)c2nnc3n2CCN(CC=C(C)C)CC3)c1 (centres undefined) 2.04%
COC1=CC(=O)C(O)=C/C1=C\C=C\c1ccccc1 -14.6%
CC(C)Oc1ccc2c(=O)c(-c3ccccc3)coc2c1
O=C(Oc1ccccc1)N1CCC2(CC1)CN(c1ccccc1)C2 2.94%
C[N+](C)(C)CC(O)CC(=O)[O-] (centres undefined) 24.6%
CCNc1ncc2nc(-c3ccc(F)cc3)c(=O)n(CCC#N)c2n1 25.9%
NC(N)=N[C@@H](CCC(=O)O)C(=O)O 9.13% [at 75.8 µM]
N#C/C(=C1/SC[C@@H](c2ccc(Cl)cc2Cl)S1)n1ccnc1
COc1cc([C@H]2Oc3cc([C@H]4Oc5cc(O)cc(O)c5C(=O)[C@@H]4O)ccc3O[C@@H]2CO)ccc1O 21.7%
CCCCOc1cc(C(=O)OCCN(CC)CC)ccc1N 12.7% [at 75.8 µM]
CN(C)c1ncc2nc(-c3ccc(Cl)cc3)c(=O)n(CCC#N)c2n1 19.8%
COc1ccc(C(=O)N2CCC3(CCCN(C(c4ccccc4)c4ccccc4)C3)CC2)cc1 -3.03%
Cc1nc2n(c(=O)c1CCN1CCC(c3noc4cc(F)ccc34)CC1)CCC[C@H]2O 33.4%
CN1CCCCC1C(=O)N1CCC(Oc2cccc(CN3CCN(c4ccccn4)CC3)c2)CC1 (centres undefined) 9.83%
CCCCC[C@H](O)/C=C/[C@H]1C(=O)C=C[C@@H]1C/C=C\CCCC(=O)O 36% [at 15.3 µM]
CN(C)C(=O)c1ccc(-c2ccc3ncnc(NCc4cccs4)c3c2)cc1 -18.6%
Nc1c[n+](N2CCOCC2)no1 18.8%
CNc1nc(-c2cccc(C#N)c2)nc2ccccc12 4.64%
CC(C)(C)c1cc(O)c(C(C)(C)C)cc1O
C=Cc1ccc(S(=O)(=O)O)cc1 15.8%
CCC1CN(CC(=O)NC(C)c2cn(C)nc2C)Cc2cc(OC)ccc2O1 (centres undefined) 13.8%
CC(C)NC(=O)N1CCC2(CC1)CCN(C(=O)c1cccc(F)c1)CC2 2.54%
COc1cc(O)c2c(=O)cc(C)oc2c1CC=C(C)C -19.2%
COC(=O)N1CCC2(CCCN(c3ncccn3)C2)CC1 9.34%
O=C1CC[C@H](N2C(=O)c3ccccc3C2=O)C(=O)N1 2.71%
OC/C=C/c1ccccc1 4.11%
CCOC(=O)C1=C(N)Oc2ccc(Br)cc2C1C(C#N)C(=O)OCC (centres undefined) 12.9% [at 201 µM]
COc1ccc2c(c1)-c1nc(-n3ncc(C(=O)N(C)CC4CCCN(C)C4)c3C3CC3)ncc1CC2 (centres undefined) 16.2%
CCOC(=O)N1CCN(C(=O)c2ccc(-c3ccccc3OC)nc2N2CCC(N3CCCC(CO)C3)CC2)CC1 (centres undefined) 17.4%
C1CCC(N=C(NC23CC4CC(CC(C4)C2)C3)N2CCOCC2)CC1 16.4% [at 75.8 µM]
NC1CCN(O)C1=O (centres undefined) -3.41% [at 75.8 µM]
Cn1c(=O)c(CCc2ccccc2)nc2cnc(N3CCNCC3)nc21 10.4%
Cc1ccccc1CN1[C@@H]2c3ccccc3C[C@@H]2OCCS1(=O)=O -5.44%
CC1(C)SC2C(NC(=O)COc3ccccc3)C(=O)N2C1C(=O)O (centres undefined) 9.69%
C[C@@]12CCC(OC(=O)c3ccccc3)CC1CCc1ccccc12 (some centres undefined) -0.163%
COC(=O)[C@H](Cc1ccccc1)NC(=O)[C@@H](N)CC(=O)O (H-Asp-Phe-OMe)
O=C(NC[C@H]1CCCCN1)c1cc(OCC(F)(F)F)ccc1OCC(F)(F)F -3.95%
C=C1O[C@@](CO)(n2cnc3c(N)ncnc32)[C@H](O)[C@@H]1O 19.8% [at 201 µM]
CN(C)Cc1ccccc1-c1cc(-n2ccnc2)ncn1 8.23%
CN(C)Cc1ccccc1-c1cc(NCc2ccccc2)ncn1 14.6%
c1ccc(Nc2ncncc2-c2ccc3c(c2)OCO3)cc1 1.53%
COC(=O)[C@H]1[C@@H]2C[C@@H]3c4[nH]c5ccccc5c4CCN3C[C@H]2CC[C@H]1O 9.86%
COc1cc(-c2noc(C)c2C#Cc2ccc(N)cc2)cc(OC)c1OC -0.782%
Cc1cccc(CNc2ccnc(-c3cccc(NS(C)(=O)=O)c3)n2)c1 8.68%
NC1(C(=O)O)CCc2cc(P(=O)(O)O)ccc21 (centres undefined) -1.16%
COC(=O)[C@@H]1CCCN1Cc1ccc2c(c1)CN(Cc1ccccc1C)CCO2 13%
Cc1ccccc1N=Nc1ccc(N=Nc2c(O)ccc3ccccc23)c(C)c1 9.54%
O=C(CCC1CCN(Cc2ccccc2)CC1)c1ccc2c(c1)NCCCC2 7.97%
O=C(O)c1c2ccccc2cc2ccccc12
CO/N=C(\C(=O)N[C@@H]1C(=O)N2C(C(=O)O)=C(COC(C)=O)CS[C@H]12)c1csc(N)n1 10.9% [at 75.8 µM]
CN(Cc1ccco1)c1nc(-c2ccccc2Cl)nc2ccccc12 5.28%
Cc1cnc(C)c(-c2cc(F)cc3c2OC(CNC(=O)c2cc(Cl)ccc2F)C3)n1 (centres undefined) 6.78%
COc1cccc(CNC(=O)c2c(OC)cc(=O)n3c2CCN(C(=O)c2ccc(C)s2)CC3)c1 2.81%
Cc1ccccc1-c1cncnc1N(C)Cc1ccco1 17.8%
CCCCCCCCCCCCCCCCCCN(CCCCCCCCCCCCCCCCCC)c1ccc(C=O)cc1 6.65%
CN(C)c1ccc(-c2cncnc2NCc2ccccc2)cc1 27.5%
COc1ccc2c(c1)OC(C)CN(CC(=O)NCc1cn[nH]c1-c1ccc(F)cc1)C2 (centres undefined) 11.8%
O=C(O)[C@@H]1[C@H]2C[C@H]3c4[nH]c5ccccc5c4CCN3C[C@@H]2CC[C@@H]1O 0.446% [at 75.8 µM]
C=CC1=C(C)C2=Cc3c(C=C)c(C)c4[n]3[Sn+2][n]3c(c(C)c(CCC(=O)O)c3=CC3=NC(=C4)C(C)=C3CCC(=O)O)=CC1=N2 -5.34%
